Patent publication US11618753B2 (priority 2018, dated 2023)

Each compound was assayed on MLKL phosphorylation, HT29-L23 human colorectal adenocarcinoma cells (assay: cells). Settings: read-out: pMLKL HCS Cell Assay (IC50, uM).

Compound | IC50 [µM]
Cc1ccc(-c2cc(C(F)(F)F)c3c(N)ncnn23)c(F)c1C(=O)N[C@@H]1CN(C(=O)C(C)(C)F)C[C@@H]1F [Example 753, 3-[4-amino-5-(trifluoromethyl)pyrrolo[2,1-f][1,2,4]triazin-7-yl]-2-fluoro-N-[(3R,4S)-4-fluoro-1-(2-fluoro-2-methylpropanoyl)pyrrolidin-3-yl]-6-methylbenzamide] | 0.025
Cc1ccc(-c2cc(C(F)(F)F)c3c(N)ncnn23)c(F)c1C(=O)N[C@@H]1CN(C(=O)C2CC2(F)F)C[C@@H]1F (stereo partly drawn) [Example 754, 3-[4-amino-5-(trifluoromethyl)pyrrolo[2,1-f][1,2,4]triazin-7-yl]-N-[(3R,4S)-1-(2,2-difluorocyclopropanecarbonyl)-4-fluoropyrrolidin-3-yl]-2-fluoro-6-methylbenzamide] | 0.016
Cc1ccc(-c2cc(C(F)(F)F)c3c(N)ncnn23)c(F)c1C(=O)N[C@@H]1CN(C(=O)C2CCC(F)(F)CC2)C[C@@H]1F [Example 755, 3-[4-amino-5-(trifluoromethyl)pyrrolo[2,1-f][1,2,4]triazin-7-yl]-N-[(3R,4S)-1-(4,4-difluorocyclohexanecarbonyl)-4-fluoropyrrolidin-3-yl]-2-fluoro-6-methylbenzamide] | 0.0096
Cc1ccc(-c2cc(C(F)(F)F)c3c(N)ncnn23)c(F)c1C(=O)N[C@@H]1CN(C(=O)c2ccccc2F)C[C@@H]1F [Example 756, 3-[4-amino-5-(trifluoromethyl)pyrrolo[2,1-f][1,2,4]triazin-7-yl]-2-fluoro-N-[(3R,4S)-4-fluoro-1-(2-fluorobenzoyl)pyrrolidin-3-yl]-6-methylbenzamide] | 0.0039
Cc1ccc(-c2cc(C(F)(F)F)c3c(N)ncnn23)c(F)c1C(=O)N[C@@H]1CN(C(=O)C(C)(C)O)C[C@@H]1F [Example 757, 3-[4-amino-5-(trifluoromethyl)pyrrolo[2,1-f][1,2,4]triazin-7-yl]-2-fluoro-N-[(3R,4S)-4-fluoro-1-(2-hydroxy-2-methylpropanoyl)pyrrolidin-3-yl]-6-methylbenzamide] | 0.234
Cc1ccc(-c2cc(C(F)(F)F)c3c(N)ncnn23)c(F)c1C(=O)N[C@@H]1CN(C(=O)[C@@](C)(O)C(F)(F)F)C[C@@H]1F [Example 758, 3-[4-amino-5-(trifluoromethyl)pyrrolo[2,1-f][1,2,4]triazin-7-yl]-2-fluoro-N-[(3R,4S)-4-fluoro-1-[(2R)-3,3,3-trifluoro-2-hydroxy-2-methylpropanoyl]pyrrolidin-3-yl]-6-methylbenzamide] | 0.0034
Cc1ccc(-c2cc(C(F)(F)F)c3c(N)ncnn23)c(F)c1C(=O)N[C@@H]1CN(C(=O)CC(O)(C(F)(F)F)C(F)(F)F)C[C@@H]1F [Example 759, 3-[4-amino-5-(trifluoromethyl)pyrrolo[2,1-f][1,2,4]triazin-7-yl]-2-fluoro-N-[(3R,4S)-4-fluoro-1-[4,4,4-trifluoro-3-hydroxy-3-(trifluoromethyl)butanoyl]pyrrolidin-3-yl]-6-methylbenzamide] | 0.0027
Cc1ccc(-c2cc(C(F)(F)F)c3c(N)ncnn23)c(F)c1C(=O)N[C@@H]1CN(C(=O)CC(F)(F)F)C[C@@H]1F [Example 760, 3-[4-amino-5-(trifluoromethyl)pyrrolo[2,1-f][1,2,4]triazin-7-yl]-2-fluoro-N-[(3R,4S)-4-fluoro-1-(3,3,3-trifluoropropanoyl)pyrrolidin-3-yl]-6-methylbenzamide] | 0.042
Cc1ccc(-c2cc(C(F)(F)F)c3c(N)ncnn23)c(F)c1C(=O)N[C@@H]1CN(C(=O)CC(C(F)(F)F)C(F)(F)F)C[C@@H]1F [Example 761, 3-[4-amino-5-(trifluoromethyl)pyrrolo[2,1-f][1,2,4]triazin-7-yl]-2-fluoro-N-[(3R,4S)-4-fluoro-1-[4,4,4-trifluoro-3-(trifluoromethyl)butanoyl]pyrrolidin-3-yl]-6-methylbenzamide] | 0.0059
Cc1ccc(-c2cc(C(F)(F)F)c3c(N)ncnn23)c(F)c1C(=O)N[C@@H]1CN(C(=O)C2CCC(F)(F)C2)C[C@@H]1F (stereo partly drawn) [Example 762, 3-[4-amino-5-(trifluoromethyl)pyrrolo[2,1-f][1,2,4]triazin-7-yl]-N-[(3R,4S)-1-(3,3-difluorocyclopentanecarbonyl)-4-fluoropyrrolidin-3-yl]-2-fluoro-6-methylbenzamide] | 0.002
Nc1ncnn2c(-c3cccc(C(=O)N[C@@H]4CN(C(=O)C5CCC5)C[C@@H]4F)c3F)cc(C(F)(F)F)c12 [Example 763, 3-[4-amino-5-(trifluoromethyl)pyrrolo[2,1-f][1,2,4]triazin-7-yl]-N-[(3R,4S)-1-cyclobutanecarbonyl-4-fluoropyrrolidin-3-yl]-2-fluorobenzamide] | 0.043
CC(C)CC(=O)N1C[C@H](F)[C@H](NC(=O)c2cccc(-c3cc(C(F)(F)F)c4c(N)ncnn34)c2F)C1 [Example 764, 3-[4-amino-5-(trifluoromethyl)pyrrolo[2,1-f][1,2,4]triazin-7-yl]-2-fluoro-N-[(3R,4S)-4-fluoro-1-(3-methylbutanoyl)pyrrolidin-3-yl]benzamide] | 0.067
CC(C)(C)C(=O)N1C[C@H](F)[C@H](NC(=O)c2cccc(-c3cc(C(F)(F)F)c4c(N)ncnn34)c2F)C1 [Example 765, 3-[4-amino-5-(trifluoromethyl)pyrrolo[2,1-f][1,2,4]triazin-7-yl]-N-[(3R,4S)-1-(2,2-dimethylpropanoyl)-4-fluoropyrrolidin-3-yl]-2-fluorobenzamide] | 0.195
Nc1ncnn2c(-c3cccc(C(=O)N[C@@H]4CN(C(=O)c5ccc(F)cc5)C[C@@H]4F)c3F)cc(C(F)(F)F)c12 [Example 766, 3-[4-amino-5-(trifluoromethyl)pyrrolo[2,1-f][1,2,4]triazin-7-yl]-2-fluoro-N-[(3R,4S)-4-fluoro-1-(4-fluorobenzoyl)pyrrolidin-3-yl]benzamide] | 0.076
Nc1ncnn2c(-c3cccc(C(=O)N[C@@H]4CN(C(=O)c5ccccc5F)C[C@@H]4F)c3F)cc(C(F)(F)F)c12 [Example 767, 3-[4-amino-5-(trifluoromethyl)pyrrolo[2,1-f][1,2,4]triazin-7-yl]-2-fluoro-N-[(3R,4S)-4-fluoro-1-(2-fluorobenzoyl)pyrrolidin-3-yl]benzamide] | 0.025
Nc1ncnn2c(-c3cccc(C(=O)N[C@@H]4CN(C(=O)C5CC(F)(F)C5)C[C@@H]4F)c3F)cc(C(F)(F)F)c12 [Example 768, 3-[4-amino-5-(trifluoromethyl)pyrrolo[2,1-f][1,2,4]triazin-7-yl]-N-[(3R,4S)-1-(3,3-difluorocyclobutanecarbonyl)-4-fluoropyrrolidin-3-yl]-2-fluorobenzamide] | 0.082
CC(C)(F)C(=O)N1C[C@H](F)[C@H](NC(=O)c2cccc(-c3cc(C(F)(F)F)c4c(N)ncnn34)c2F)C1 [Example 769, 3-[4-amino-5-(trifluoromethyl)pyrrolo[2,1-f][1,2,4]triazin-7-yl]-2-fluoro-N-[(3R,4S)-4-fluoro-1-(2-fluoro-2-methylpropanoyl)pyrrolidin-3-yl]benzamide] | 0.295
CC(C)(C(=O)N1C[C@H](F)[C@H](NC(=O)c2cccc(-c3cc(C(F)(F)F)c4c(N)ncnn34)c2F)C1)C(F)(F)F [Example 770, 3-[4-amino-5-(trifluoromethyl)pyrrolo[2,1-f][1,2,4]triazin-7-yl]-2-fluoro-N-[(3R,4S)-4-fluoro-1-(3,3,3-trifluoro-2,2-dimethylpropanoyl)pyrrolidin-3-yl]benzamide] | 0.335
Nc1ncnn2c(-c3cccc(C(=O)N[C@@H]4CN(C(=O)C5CC(F)C5)C[C@@H]4F)c3F)cc(C(F)(F)F)c12 (stereo partly drawn) [Example 771, 3-[4-amino-5-(trifluoromethyl)pyrrolo[2,1-f][1,2,4]triazin-7-yl]-2-fluoro-N-[(3R,4S)-4-fluoro-1-(3-fluorocyclobutanecarbonyl)pyrrolidin-3-yl]benzamide] | 0.128
Nc1ncnn2c(-c3cccc(C(=O)N[C@@H]4CN(C(=O)C5CCC(F)(F)C5)C[C@@H]4F)c3F)cc(C(F)(F)F)c12 (stereo partly drawn) [Example 772, 3-[4-amino-5-(trifluoromethyl)pyrrolo[2,1-f][1,2,4]triazin-7-yl]-N-[(3R,4S)-1-(3,3-difluorocyclopentanecarbonyl)-4-fluoropyrrolidin-3-yl]-2-fluorobenzamide] | 0.113
Nc1ncnn2c(-c3cccc(C(=O)N[C@@H]4CN(C(=O)C5CC5(F)F)C[C@@H]4F)c3F)cc(C(F)(F)F)c12 (stereo partly drawn) [Example 773, 3-[4-amino-5-(trifluoromethyl)pyrrolo[2,1-f][1,2,4]triazin-7-yl]-N-[(3R,4S)-1-(2,2-difluorocyclopropanecarbonyl)-4-fluoropyrrolidin-3-yl]-2-fluorobenzamide] | 0.23
C[C@@](O)(C(=O)N1C[C@H](F)[C@H](NC(=O)c2cccc(-c3cc(C(F)(F)F)c4c(N)ncnn34)c2F)C1)C(F)(F)F [Example 774, 3-[4-amino-5-(trifluoromethyl)pyrrolo[2,1-f][1,2,4]triazin-7-yl]-2-fluoro-N-[(3R,4S)-4-fluoro-1-[(2R)-3,3,3-trifluoro-2-hydroxy-2-methylpropanoyl]pyrrolidin-3-yl]benzamide] | 0.022
Nc1ncnn2c(-c3cc(C(=O)N[C@@H]4CN(C(=O)CC(F)(F)F)C[C@@H]4F)c(F)cc3F)cc(C(F)(F)F)c12 [Example 775, 5-[4-amino-5-(trifluoromethyl)pyrrolo[2,1-f][1,2,4]triazin-7-yl]-2,4-difluoro-N-[(3R,4S)-4-fluoro-1-(3,3,3-trifluoropropanoyl)pyrrolidin-3-yl]benzamide] | 0.074
CC(C)(O)C(=O)N1C[C@H](F)[C@H](NC(=O)c2cc(-c3cc(C(F)(F)F)c4c(N)ncnn34)c(F)cc2F)C1 [Example 776, 5-[4-amino-5-(trifluoromethyl)pyrrolo[2,1-f][1,2,4]triazin-7-yl]-2,4-difluoro-N-[(3R,4S)-4-fluoro-1-(2-hydroxy-2-methylpropanoyl)pyrrolidin-3-yl]benzamide] | 0.143
Nc1ncnn2c(-c3cc(C(=O)N[C@@H]4CN(C(=O)C5CC(F)C5)C[C@@H]4F)c(F)cc3F)cc(C(F)(F)F)c12 (stereo partly drawn) [Example 778, 5-[4-amino-5-(trifluoromethyl)pyrrolo[2,1-f][1,2,4]triazin-7-yl]-2,4-difluoro-N-[(3R,4S)-4-fluoro-1-(3-fluorocyclobutanecarbonyl)pyrrolidin-3-yl]benzamide] | 0.026
